In article PMC12136788 one finds binding signal data, which are given here for 14 molecules.

The other results are listed elsewhere or left out.

T1: UNK ZnF1-6 (called full-length) (human, UniProt Q9C0B0 30-357)
T1 sequence: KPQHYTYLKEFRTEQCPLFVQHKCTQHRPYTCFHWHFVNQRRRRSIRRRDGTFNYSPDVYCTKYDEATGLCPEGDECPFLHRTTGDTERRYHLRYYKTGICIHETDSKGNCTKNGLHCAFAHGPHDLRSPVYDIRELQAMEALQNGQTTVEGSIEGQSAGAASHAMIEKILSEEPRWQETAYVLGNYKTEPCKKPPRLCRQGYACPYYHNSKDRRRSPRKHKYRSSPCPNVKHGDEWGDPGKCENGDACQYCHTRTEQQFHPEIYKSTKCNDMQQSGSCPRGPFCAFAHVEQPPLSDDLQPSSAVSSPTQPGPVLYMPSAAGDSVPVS

B1: chr16:23064695:23064796:-|3pUTR|ENSG00000103404|msi1|total|mutant (ssRNA)
RNA: GGGAGUUCUACAGUCCGACGAUCGUUUAUGGAGGGCCUUCUUUGAGCACAGAGGCAAAACUGAAAGCUUCAGGGAUUUGCUGCCGCUGAGGAGCCCUGGGAGCACAGCCCAUCAAGCAAGGGAUGUGAUGGUGUCCUAAAUGGCAACAGAGGAUUGAGCAUCA
B2: ENSG00000198589:be:win_7401|CDS|ENSG00000198589|bound_else_gene|NA|bound_elsewhere_windowed (ssRNA)
RNA: GGGAGUUCUACAGUCCGACGAUCUUCUCAACUACUCAUAGAGCCCCAUCCUCCCAGAGGUUCUGCCAUGCAAGUGAGUCCAUUGAUGUUCACAGACAAAGCCCAGCAGGAUGUUAUCAUGGUCCUCAAGUUUCCCUCCAACUCCAACAGAGGAUUGAGCAUCA
B3: chr12:56416428:56416529:-|3pUTR|ENSG00000111602|msi1|total|mutant (ssRNA)
RNA: GGGAGUUCUACAGUCCGACGAUCAUGUUCUUACCCAUUCUUGGAAACGUCAGCUUUCUUGCUUCCUGUGCUUCCAGCCGAGGCCGGGCAAAGGUGAGAUUGAGAAAACCGCCAUUCAGCUCAGGAAGGCUUCUAAGUAAAGGACAACAGAGGAUUGAGCAUCA
B4: chr5:132696315:132696416:-|3pUTR|ENSG00000131437|msi1|FALSE|unique (ssRNA)
RNA: GGGAGUUCUACAGUCCGACGAUCGUUGUACUACUACUCUUCAAUUGUACUGUGCAGGGAAGUUGGGGGAACAGUUCAUACUAUAGAGAGUUACAGUUUAGAUGUAUGUGUAAAUCGAUUAGCUAUUUAUCCAACUACUGUAUACAACAGAGGAUUGAGCAUCA
B5: chr1:225845535:225846932:-|three_prime_utr|ENSG00000196187|control|control|control (ssRNA)
RNA: GGGAGUUCUACAGUCCGACGAUCGAACAGGUUGGGAGGUGGCCAGUGCUCCUGCCAGCUGUGCACACAUCUCUGUAUCCCGCUAGAGUUCUGUGUUUUUGUAUCAUGUUGUCAGGGACGCUAGCUGGGUCAGGGUUACCCCAUCAACAGAGGAUUGAGCAUCA
B6: chr5:35065091:35066102:-|CDS|ENSG00000113494|control|control|control (ssRNA)
RNA: GGGAGUUCUACAGUCCGACGAUCAAAAUCCUCUCAAACCAUUAAGUCUAGAGAAGAGGGAAAGGCAACCCAGCAGAGGGAGGUAGAAAGCUUCCAUUCUGAGACUGACCAGGAUACGCCCUGGCUGCUGCCCCAGGAGAAAACCAACAGAGGAUUGAGCAUCA
B7: chr5:43486917:43487111:-|CDS|ENSG00000172244|control|control|control (ssRNA)
RNA: GGGAGUUCUACAGUCCGACGAUCUUAUAAACCAGGAUCUUCAGAAACCUUGCUAGGAGAAGUUAAUGAAAAUAGAGUAUCAAUAGCAUUGAAAAAAACCUCUGAAAUCCUUCACGAUAUUGACUGUCUUCUAUCAAACUCUAACAACAGAGGAUUGAGCAUCA
B8: chr7:56063203:56063317:+|3pUTR|ENSG00000146731|unk|FALSE|unique (ssRNA)
RNA: GGGAGUUCUACAGUCCGACGAUCCCCAUAUGAAAAAAGGAGAGAACACUGGCAUCUGUUGAAAUUUGGAAGUUCUGAAAUUAUAGUAUUUUUAAAAAUUGCACUGAAGUGUAUACACAUAAAGCAGGUCUUUUAUCCAGUGAACAACAGAGGAUUGAGCAUCA
B9: chr12:98549999:98550103:+|3pUTR|ENSG00000120802|unk|total|mutant (ssRNA)
RNA: GGGAGUUCUACAGUCCGACGAUCUGUUUCCCAUACUGUUUUCAGCCUUUUGUUUAUAAUCCGAAAUUGUGAGAAGCUUCAUUCCGUGUUUAAAAAUGUGGGGAGAUAAAUCAGACUUAACAUGUAUGUAAGAUCAAUUCACUUCAACAGAGGAUUGAGCAUCA
B10: chr10:96982068:96982170:+|CDS|ENSG00000196233|unk|FALSE|unique (ssRNA)
RNA: GGGAGUUCUACAGUCCGACGAUCUCAGCAUUGGCAUCAGAGGCAGUUUUCACUCCUAAGCAGACCCUUACAAUUCCAGCCCCUAGACAUACAGUAGAUGUGCAGCUUCCCAGAGAAGACAACCCUGAAGAACCUAGCAAGGAACAACAGAGGAUUGAGCAUCA
B11: chr8:65724783:65724899:-|CDS|ENSG00000205268|unk|FALSE|unique (ssRNA)
RNA: GGGAGUUCUACAGUCCGACGAUCAUAGGUGCUCUGAUACUAGCCACAGACAUCAGUCGCCAGAAUGAGUAUCUGUCUUUGUUUAGGUCCCAUUUGGAUAGAGGUGAUUUAUGCCUAGAAGACACCAGACACAGACAUUUGGUUCAACAGAGGAUUGAGCAUCA
B12: chr7:74195289:74195308:+|CDS_3pUTR|ENSG00000106682|msi1_unk|FALSE|overlapping (ssRNA)
RNA: GGGAGUUCUACAGUCCGACGAUCGCGACGCCCCUCAAUCAAGUAGCCAAUCCCAACUCUGCUAUCUUCGGGGGUGCCAGGCCUAGAGAGGAAGUCGUUCAAAAGGAGCAAGAAUGAGCCUGCGGUUGGGAGGGAAUGGGGCGUCAACAGAGGAUUGAGCAUCA
B13: chrX:65741246:65741425:+|3pUTR|ENSG00000147065|msi1|total|mutant (ssRNA)
RNA: GGGAGUUCUACAGUCCGACGAUCUAUUAUGUACUCUACUGAUAUCUAAAUAUUGAUUUCUGCCUUCCUUGCUAAUGCACCAUCCGAAGAUAUCCGUCUUGGGGCAGGAUGAUUUUGGCCUCAUUACUUUACCACCCCCACACCCAACAGAGGAUUGAGCAUCA
B14: chr19:811491:811550:+|3pUTR|ENSG00000011304|msi1_unk|FALSE|overlapping (ssRNA)
RNA: GGGAGUUCUACAGUCCGACGAUCUAGCAAUAUUUCCAGUUGACCAAAUAUUCUAAUCUUUUUUCAUUUAUAUGCAAAAGAAAUAGUUUUAAGUAACUUUUUAUAGCAAGAUGAUACAAUGGUAUGAGUGUAAUCUAAACUUCCCAACAGAGGAUUGAGCAUCA

The assay deals with T1, UNK ZnF1-6 (called full-length). The assay is described as follows: nsRBNS (natural sequence RNA bind-n-seq); RBNS binding buffer (assumed for nsRBNS): 25 mM Tris pH 7.5, 150 mM KCl, 3 mM MgCl2, 0.01% Triton X-100, 500 ug/ml BSA, 20 U/ml SUPERase-In, 4 C; UNK is unkempt and MSI1 is Musashi-1; names of the RNAs are library labels; protein concentration not given here; high values mean tight binding.
B1: the binding signal was determined as 0.951 enrichment R. Molecule B2 gave a binding signal of 0.555 enrichment R. The figure for B3 is 0.546 enrichment R; for B4 it is 2.26 enrichment R; for B5 it is 0.838 enrichment R. Molecule B6 displayed a binding signal of 0.746 enrichment R.

Turning to B7, the binding signal is 0.69 enrichment R. The figure for B8 is 2.8 enrichment R. In the case of B9, the binding signal turned out to be 0.419 enrichment R.

B10 had a binding signal of 1.04 enrichment R. B11: the binding signal came out at 0.589 enrichment R. Take B12: the binding signal was 0.875 enrichment R.

As to B13, the binding signal was 0.759 enrichment R. With B14, the binding signal came to 0.832 enrichment R.
